Experimental data as given in PubChem BioAssay AID1159614 (National Center for Advancing Translational Sciences (NCATS), 2016).
Among all 45,000 compounds or so, about 65 (0.1%) were called active. Calls come from the whole dose curve; as a rule, active = well fitted activation curve with a large enough effect; inconclusive = small, poorly fitted or top-dose-only effect; inactive = no such curve, though single readings can be large or run the other way. The list shows a part of the results.

biological target: Galactocerebrosidase (Homo sapiens) (UniProt P54803); assay: A Novel Cell-Based Assay to Identify Small Molecules for B -Galactocerebrosidase; details: 145M-Twi-hGALC-G270D cells, HMU-beta-Gal fluorescence, 48 h; series mostly up to 57.5 µM; activation: at the top concentration; note: 0% is about no effect; nearly all actives have a fitted effect of over 65% in size
Summary of the method: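 qHTS, 1536-well; 145M-Twi-hGALC-G270D cells (WT line also made) in DMEM/F12 + 10% FBS; compound incubation on live cells; HMU-β-gal 0.1 mM final, pH 5.2, NaTC; carbonate stop; fluorescence increase = enhanced residual activity.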

Sequence of UniProt P54803 (P54803 whole entry, looked up): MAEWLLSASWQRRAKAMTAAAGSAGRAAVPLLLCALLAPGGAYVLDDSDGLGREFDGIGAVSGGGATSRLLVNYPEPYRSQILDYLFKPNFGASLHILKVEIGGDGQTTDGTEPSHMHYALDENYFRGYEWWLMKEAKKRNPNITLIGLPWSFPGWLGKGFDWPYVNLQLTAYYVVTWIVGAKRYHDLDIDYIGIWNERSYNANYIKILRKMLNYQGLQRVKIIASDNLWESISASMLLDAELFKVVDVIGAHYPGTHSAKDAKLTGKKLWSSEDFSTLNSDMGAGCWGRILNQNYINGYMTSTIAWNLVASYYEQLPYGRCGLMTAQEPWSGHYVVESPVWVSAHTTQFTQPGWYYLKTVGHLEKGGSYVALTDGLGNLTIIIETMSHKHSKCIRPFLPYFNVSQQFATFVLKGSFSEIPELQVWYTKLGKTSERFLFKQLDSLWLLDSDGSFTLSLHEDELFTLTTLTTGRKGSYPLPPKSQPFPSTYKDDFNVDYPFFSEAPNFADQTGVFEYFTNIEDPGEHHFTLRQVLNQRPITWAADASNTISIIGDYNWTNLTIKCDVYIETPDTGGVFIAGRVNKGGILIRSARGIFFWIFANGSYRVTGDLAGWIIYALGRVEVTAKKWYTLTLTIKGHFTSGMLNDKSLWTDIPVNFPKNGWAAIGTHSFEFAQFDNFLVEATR

activation, inactive:
CCOc1ccc(-c2nc3c(c(SCC(=O)N4CCCCC4)n2)Cc2cc(C)ccc2O3)cc1 -21%, CCOc1ccc(CN2C(=O)c3ccccc3Sc3ccc(C(=O)N4CCN(C)CC4)cc32)cc1 -6.63%, O=C(NC1CC(=O)N(c2ccccc2)C1)c1ccc(S(=O)(=O)N2CCOCC2)cc1 (configuration not stated) -6.78%, Brc1ccc(-c2ccc(CNCCSc3nnnn3-c3ccccc3)o2)cc1 -9.86%, CCOc1ccc(-n2nc(CO)c(C(=O)NCc3ccc(Cl)cc3)n2)cc1 -8.04%, COc1ccc(Br)c2c1-c1nc(NC(=O)c3cccc(C)c3)sc1C2 5.24%, Cc1ccc(-c2nnc(SCCOc3ccccc3)o2)cc1 -11.1%, CC1CCN(C(=O)CSc2c3c(nc4cc(Cl)ccc24)CCCC3)CC1 -6.87%, COc1ccc(OC)c(NC(=O)CSc2n[nH]c(-c3ccccc3Cl)n2)c1 -9.92%, c1ccc(-c2cn(-c3ccccc3)c3ncnc(N4CCN(c5ccccc5)CC4)c23)cc1 -11.7%, CCOC(=O)CC(NC(=O)c1cc2cc(Cl)ccc2oc1=O)c1ccc(C)cc1 (configuration not stated) -0.931%, Cc1cc(C)cc(Oc2c(C(F)(F)F)oc3c(CN4CCCC(C)C4)c(O)ccc3c2=O)c1 (configuration not stated) -8.5%, COc1ccccc1N1CCN(c2ccc3cc(S(=O)(=O)N4CCCCC4)ccc3n2)CC1 -13.8%, CCC(=O)Nc1sc2c(c1C(=O)Nc1ccc(OC)cc1)CCC(C(C)(C)C)C2 (configuration not stated) 0.624%, CCc1ccc(NC(=O)C2CCN(c3nnc(-n4c(C)ccc4C)s3)CC2)cc1 -10.6%, CCOc1ccc(-c2cn(-c3ccc(OC)cc3)c(SCC(=O)Nc3ccccc3Cl)n2)cc1 -11.7%, COc1ccc(F)cc1S(=O)(=O)NCCc1csc(-c2ccc(Cl)cc2)n1 -10.8%, CC(=O)c1ccc(NC(=O)CSc2cn(CC(=O)N3CCCCC3)c3ccccc23)cc1 -9.93%, CCCC(=O)NCCc1nc2ccccc2n1Cc1c(F)cccc1Cl -12.8%, Cc1ccc(C)c(-n2nnc(-c3nc(-c4ccc(Cl)cc4)no3)c2N)c1 -18.3%, O=C(Nc1ccc(S(=O)(=O)N2CCC(c3nc4ccccc4s3)CC2)cc1)c1ccc(F)cc1 -3.81%, Cc1cc(C)c(S(=O)(=O)NCCc2cc3c(C)ccc(C)c3[nH]c2=O)c(C)c1 -14%, Cc1ccc(NC(=O)C2Cc3ccccc3N2C(=O)c2ccccc2)cc1Cl (configuration not stated) -8.55%, NNC(=O)c1ccncc1 -3.09%, CN(C(=O)CCCOc1ccc2[nH]c(=O)ccc2c1)C1CCCCC1 -7.25%, N#Cc1ccc(C(=O)Nc2ccc(Cl)c(-c3nc4cc(Cl)ccc4o3)c2)c(F)c1 -27.9%, O=C(NCc1ccc2c(c1)CCN2C(=O)c1ccncc1)c1cccc(Cl)c1 -13.6%
